Assay results reported in PubChem BioAssay AID624418 (National Center for Advancing Translational Sciences (NCATS), 2012).
Screen size: about 410,000 compounds; about 530 (0.13%) were called active. This list was built around the results that the source calls inconclusive (neither active nor inactive); the mix of calls is not that of the screen. Calls follow the shape of the dose curve; as a rule, active = well fitted inhibition curve with a large enough effect; inconclusive = small, poorly fitted or top-dose-only effect, or another doubt; inactive = no such curve, though single readings can be large or run the other way. Potencies beside an inconclusive call are fits to weak or partial responses and may not hold up.
% is scaled to controls: 0 for no effect and ±100 for the full control effect; potency is read from the fitted curve at half-maximal effect.

Assay: qHTS of GLP-1 Receptor Inverse Agonists: Cytotox Screen
Conditions: HEK293 cAMP-luciferase reporter cells, luminescence, 24 h; activity change, negative = inhibition: at 38.3 µM (top of the series) unless noted
Outline: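 1536-well qHTS counterscreen of the MLSMR; 200 cells/uL, 12 h pre-incubation, 23 nL cpd, 24 h at 37 deg C 5% CO2, luciferase detection reagent, 12 min RT, luminescence. Inhibition = undesired.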
For `COCCCN1C(=O)C(O)=C(C(=O)c2ccc(C)o2)C1c1cccc(Br)c1` (stereo not drawn), the Potency was inconclusive: 10 µM [inhibitor, single point]. For `Cc1n[nH]c(C)c1CCc1nc2c3ccccc3nc(SCC(=O)Nc3ccc(F)cc3)n2n1`, the Potency was inconclusive: 28.2 µM [inhibitor, single point]. In the case of `O=C(c1cc(C2CC2)nc2ccc(Br)cc12)N1N=C(C(F)F)CC1(O)C(F)F` (stereo not drawn), the Potency is reported as inconclusive: 28.2 µM [inhibitor, single point]. In the case of `COc1ccc(N(C(=O)/C=C/c2ccc(OC)c(OC)c2)C2=CC3CCC(C2)N3C)cc1` (stereo not drawn), the Potency is reported as “inactive”. In the case of `Cc1ccc(-n2nc3c(c2NC(=O)c2c(-c4ccccc4Cl)noc2C)CSC3)cc1`, the Potency is reported as inconclusive: 28.2 µM [inhibitor, single point]. For `O=C(NC(c1ccc(-c2ccccc2)cc1)c1cnccn1)C1CCN(CCOc2ccc(Cl)cc2Cl)CC1` (stereo not drawn), the Potency was inconclusive: 22.4 µM [inhibitor, partial curve, poor fit]. With `NC(=S)N=Nc1c(O)[nH]c2c(Cl)cc(Cl)cc12` the Potency was inconclusive: 5.62 µM [inhibitor, full curve]. With `CCc1ccc(CNCc2ccc(OCC(O)CN(C)Cc3ccccc3)cc2)nc1` (stereo not drawn) the Potency was inconclusive: 11.2 µM [inhibitor, partial curve, poor fit]. In the case of `COc1ccc(CCNc2ncnc3cc(OC)c(OC)cc23)cc1OC`, the Potency is reported as “inactive”. In the case of `COCc1ccc(CN2CCC(C(=O)Nc3cccc(-c4cccc(Cl)c4)c3)CC2)o1`, the Potency is reported as inconclusive: 11.2 µM [inhibitor, partial curve]. For `N=c1n(N)c2ccccc2n1CC(=O)c1ccc(Br)cc1`, the Potency was inconclusive: 17.8 µM [inhibitor, single point]. In the case of `CC(OC(=O)/C=C/c1ccccc1)C(=O)Nc1cccc(C#N)c1` (stereo not drawn), the Potency is reported as inconclusive: 12.6 µM [inhibitor, single point]. With `COC(=O)c1ccccc1NC(=S)NC(NC(=O)COc1ccccc1)C(Cl)(Cl)Cl` (stereo not drawn) the Potency was “inactive”. With `CCCCCn1c(CCCNC(=O)c2cccc(C)c2)nc2ccccc21` the Potency was inconclusive: 11.2 µM [inhibitor, partial curve, poor fit]. In the case of `Cc1oc(-c2ccc(Cl)cc2)nc1CN1CCC(C(=O)NCCCN2CCCC(C)C2)CC1` (stereo not drawn), the Potency is reported as inconclusive: 6.31 µM [inhibitor, partial curve, poor fit]. For `CCN1CCN(c2ccc(S(=O)(=O)N3CCCCC3)cc2NC(=O)Cc2ccc(Cl)c(Cl)c2)CC1`, the Potency was inconclusive: 12.6 µM [inhibitor, single point]. For `COCCn1ccc2c(OCC(=O)Nc3ccccc3OC)cccc2c1=O`, the Potency was inconclusive: 28.2 µM [inhibitor, single point]. With `COc1ccccc1-c1nnc(C2CCN(S(=O)(=O)c3ccccc3[N+](=O)[O-])CC2)o1` the Potency was inconclusive: 12.6 µM [inhibitor, single point]. With `Cc1nn2c(=O)cc(COC(=O)c3ccc(NC(=O)COc4ccc(Cl)cc4)cc3)nc2s1` the Potency was “inactive”. For `CSc1ccc(Cn2c(C)c(C(=O)NCc3cccc(C(F)(F)F)c3)sc2=O)cc1`, the Potency was “inactive”. For `CCOC(=O)c1cnc(-n2nc(C)cc2C)nc1Oc1ccccc1F`, the Potency was inconclusive: 28.2 µM [inhibitor, single point]. With `CCOC(=O)CSC1=C(C#N)C(c2ccc(C)s2)CC(=O)N1` (stereo not drawn) the Potency was inconclusive: 2.51 µM [inhibitor, full curve, poor fit]. In the case of `CC1CCN(S(=O)(=O)c2ccc3nc(NCc4ccc(F)cc4)ccc3c2)CC1`, the Potency is reported as inconclusive: 3.55 µM [inhibitor, partial curve, poor fit]. In the case of `OCCN1CCN(c2ncnc3c2c(-c2ccccc2)cn3-c2ccc(Br)cc2)CC1`, the Potency is reported as inconclusive: 14.1 µM [inhibitor, single point]. For `CCCCNC(=O)C1CCN(Cc2ccc(OCc3ccccc3)cc2)CC1`, the Potency was inconclusive: 10 µM [inhibitor, partial curve, poor fit]. For `Cc1ccc(OCC(O)CN2C(=O)NC(C)(C)C2=O)cc1C` (stereo not drawn), the Potency was inconclusive: 12.6 µM [inhibitor, single point]. In the case of `O=[N+]([O-])c1ccccc1N/N=C/c1c[nH]c2ccccc12`, the Potency is reported as inconclusive: 0.794 µM [inhibitor, full curve]. For `CCOC(=O)/C(C#N)=C1/C=Cc2ccccc2N1CC`, the Potency was inconclusive: 11.2 µM [inhibitor, single point]. In the case of `S=C1CCSc2ccc(Cl)cc2N1`, the Potency is reported as inconclusive: 12.6 µM [inhibitor, single point]. In the case of `CCOC(=O)CN(C(=O)CSc1nnc2c(n1)[nH]c1ccc(F)cc12)c1ccccc1`, the Potency is reported as inconclusive: 10 µM [inhibitor, single point]. In the case of `OCCNCc1cc(Br)ccc1OCc1ccccc1`, the Potency is reported as inconclusive: 11.2 µM [inhibitor, single point]. In the case of `COc1cccc(CNC(=O)CCCN2C(=O)CSc3c2c(C)nn3-c2ccccc2)c1OC`, the Potency is reported as “inactive”. In the case of `CCOC(=O)N1CCN(Cc2nc3cc(NC(=O)c4ccccc4Cl)ccc3n2C(C)C)CC1`, the Potency is reported as inconclusive: 0.891 µM [inhibitor, full curve]. In the case of `O=C(CN1CCC(n2nnc3cc(F)ccc32)CC1)NCCc1nc2ccccc2[nH]1`, the Potency is reported as inconclusive: 28.2 µM [inhibitor, single point]. In the case of `CN(C(=O)c1cc([N+](=O)[O-])ccc1N1CCCC1)C1CCCCC1`, the Potency is reported as inconclusive: 7.94 µM [inhibitor, partial curve, poor fit]. In the case of `Cc1cc(Nc2nc3ccccc3nc2Cl)n(-c2ccc([N+](=O)[O-])cc2)n1`, the Potency is reported as inconclusive: 22.4 µM [inhibitor, partial curve, poor fit]. In the case of `O=C(N/N=C/c1ccc(OC(=O)c2ccccc2Cl)cc1)c1ccc(O)cc1`, the Potency is reported as inconclusive: 31.6 µM [inhibitor, partial curve, poor fit]. In the case of `CC1=CC2=C(OC1N(C)C)c1cccc3cccc(c13)C2=O` (stereo not drawn), the Potency is reported as inconclusive: 12.6 µM [inhibitor, single point]. In the case of `CC1=C(C(=O)N(C(C)C)C(C)C)CC(CC(=O)NCCCCc2ccccc2)C(=O)N1Cc1ccc(C(C)(C)C)cc1` (stereo not drawn), the Potency is reported as inconclusive: 20 µM [inhibitor, single point]. In the case of `NS(=O)(=O)c1ccc(NC(=S)NC2CCCC2)cc1`, the Potency is reported as inconclusive: 17.8 µM [inhibitor, partial curve, poor fit]. For `Cc1c(C(=O)N2CCOCC2)[nH]c2c1C(=O)CC(c1ccccc1Cl)C2` (stereo not drawn), the Potency was active: 5.62 µM. For `CCOc1ccc(NC(=O)c2ccc(F)c(S(=O)(=O)N(Cc3ccc(C(=O)OC)cc3)Cc3ccc(OC)c(OC)c3)c2)cc1`, the Potency was “inactive”. For `CCOc1cc(C2C(C#N)=C(N)OC(C)=C2C(C)=O)cc(Br)c1O` (stereo not drawn), the Potency was “inactive”. With `Cc1noc(C)c1COC(=O)C1CCN(C(=O)c2ccc(Cl)cc2)CC1` the Potency was inconclusive: 20 µM [inhibitor, single point]. For `CC(CCc1ccc(O)cc1)NCc1ccc(Br)cc1` (stereo not drawn), the Potency was inconclusive: 12.6 µM [inhibitor, single point]. For `O=C(Nc1nc2c(s1)CN(Cc1ccccc1)CC2)C1CCCC1`, the activity change, negative = inhibition was inactive: -2.15% [at 7.66 µM]. With `Cc1ccc2[nH]c(=O)c(CN(Cc3ccccc3)C(=S)NCCCN(C)C)cc2c1` the Potency was inconclusive: 12.6 µM [inhibitor, single point]. For `COc1cccc(-c2nc3c(C#N)c[nH]n3c2NC2CCCC2)c1OC`, the Potency was inconclusive: 3.16 µM [inhibitor, partial curve, poor fit]. For `CCN(CCCNC(=O)c1cc2c(=O)n(CC)c3ccccc3c2s1)Cc1ccccc1`, the Potency was inconclusive: 28.2 µM [inhibitor, single point]. With `CSc1cccc(NC(=S)N(Cc2ccc(C)cc2)Cc2cccnc2)c1` the Potency was inconclusive: 0.501 µM [inhibitor, full curve, poor fit]. With `O=[N+]([O-])c1ccc(N2CCOCC2)cc1` the Potency was inconclusive: 10 µM [inhibitor, single point]. For `COc1ccc(CCNC(=O)c2cnc3sc(N4CCOCC4)nn3c2=O)cc1`, the Potency was “inactive”. For `CN1CCN(c2ccc(NC(=O)c3ccc(-c4ccc(Br)cc4)o3)cc2)CC1`, the Potency was inconclusive: 12.6 µM [inhibitor, single point]. For `O=C(CCN1C(=O)c2ccccc2C1=O)NC(=S)Nc1cccc(Cl)c1`, the Potency was “inactive”. In the case of `S=C(NCCc1ccccc1)NCc1cccs1`, the Potency is reported as “inactive”. In the case of `CCOC(=O)c1cnc2ccc(OC)cc2c1Nc1ccc(OCc2ccccc2Cl)cc1`, the Potency is reported as “inactive”. For `COc1ccccc1CNC(=O)C(NS(=O)(=O)c1ccc2c(c1)CCN2C(C)=O)C(C)C` (stereo not drawn), the Potency was “inactive”. With `CCC(C)(C)n1nnnc1CN(Cc1cccs1)Cc1cc2cc(OC)ccc2[nH]c1=O` the Potency was inconclusive: 11.2 µM [inhibitor, single point]. In the case of `O=C(c1ccco1)N1CCN(c2nc(C3CC3)nc3sc4c(c23)CCCC4)CC1`, the Potency is reported as inconclusive: 20 µM [inhibitor, single point]. In the case of `O=C(Cn1c(=O)[nH]c2ccccc2c1=O)N1CCN(c2cccc(Cl)c2)CC1`, the activity change, negative = inhibition is reported as inactive: 13.4% [at 7.66 µM]. With `OC[C@@H]1CN(Cc2ccc(F)cc2)C[C@H](n2cnc3c(Nc4ccccc4)ncnc32)O1` the Potency was “inactive”. In the case of `O=C(Cc1cccc(NC(=O)C2CCN(C(=O)C3CC3)CC2)c1)Nc1cccc(C(=O)N2CCCC2)c1`, the Potency is reported as inconclusive: 7.94 µM [inhibitor, partial curve, poor fit]. For `O=C1Cc2ccccc2Sc2cc(OCCCN3CCCCC3)ccc21`, the Potency was inconclusive: 10 µM [inhibitor, partial curve, poor fit].
